± gives the standard deviation. In all, about 6,600 sequences were measured (“pre-steady-state target cleavage rate”: median about 0.07, highest 2% from about 0.72 on). This is a selection; strong and weak results do not stand in their true shares.
The sequences below were run on MIWI (PIWIL1) piRISC loaded with Kctd7 piRNA (30 nt) (assay: pre-steady-state target cleavage rate (min^-1); MIWI and MILI are mouse PIWI proteins and EfPiwi is from a freshwater sponge; tags in brackets are library labels; higher = faster piRNA-guided slicing of the target). Conditions: guide: Kctd7 piRNA 5'p-UGUUAAUCUCUCAGAGAAGGUGACAGUGAU; auxiliary factor: 500 nM mouse GTSF1.
Method: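 Cleave-'n-Seq: a library of target RNAs (target site embedded in constant flanks, ACAGCATTCCGCGTTAGTGATATCCG... 5' flank; DNA-blocked outside the site) at 0.1 nM was incubated with 1 nM active mouse MILI or MIWI piRISC (synthetic 5'-monophosphorylated piRNA guide) with or without 500 nM mouse GTSF1 at 33 °C for 1 min to 16 h. Uncleaved targets were sequenced and normalised to non-target controls, and the pooled three trials were fitted to a burst-and-steady-state model to give the pre-steady-state cleavage rate (min^-1; k3 is constrained to at most 1e-4). Sequence is the target site only; target names encode pairing extent (gX:gY) and contiguous / 1-mismatch / 2-mismatch / bulge geometry. Fits with R² ≤ 0 are excluded.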

Point of comparison: UUCACUGUGACCUUCUCUGAGAGAUUAAGA, “pre-steady-state target cleavage rate” value 0.141 ± 0.02. Against it:
- UAGACUGUCUCCUUCUCUGAGAGUUUAACA — higher, 0.303 ± 0.055
- UACACAGUCACCUUCUCUGAGAGAAUAACA — higher, 0.417 ± 0.073
- UAGACUGUGCACCUUCUCUGAGAGAUUAACA — higher, 0.651 ± 0.048
- UAGUGACAGACCUUCUCUGAAAGAUUAACA — within error, 0.153 ± 0.013
- UAGUGACUCACGUUCUCUGAGAGAAUAACA — lower, 0.0347 ± 0.0089
- AUCACUGUCACCUACACUGAGAGAUUAACA — higher, 0.426 ± 0.028
- UUCACUGUCACCUUCUGCUGAGAGAUUAACA — within error, 0.216 ± 0.069
- UAGUGACUCACCUUCUGUGAGAGAUUUACA — lower, 0.0961 ± 0.013
- UAGUCUGUCACCUUGUCUGAGAGAUAUUGA — lower, 0.0161 ± 0.0071
- UAGUGACACAACUUCUCUGAGAGAUUAACA — lower, 0.0826 ± 0.011
- UAGUGUGAGUCCUUCUCUGAGAGAUUAUGA — lower, 0.00956 ± 0.0032
- UACAGUCUCACCUUCUCUGAGAGAUUAACA — higher, 0.661 ± 0.027
- UUCACUCUCACCUUCUCUGAGAGAUUAUCA — lower, 0.0915 ± 0.019
- UAGUGAGUCACCUUCUCAGAGAGAUAAACA — within error, 0.139 ± 0.014
- UAGUGACUUACCUUCUCUGAGAGAUUAACA — higher, 0.223 ± 0.015
- UAGACUGUCAGGUUCUCUGAGAGAUUAACA — higher, 0.518 ± 0.042
- UACACUGUCACCUUCUCUGAGACAUUAAGA — lower, 0.0144 ± 0.0049
- UAGUGACUCACCUGCUCUGAGAGAUUAACA — higher, 0.275 ± 0.03
- UAGUGACUCACCUUCACUGACAGAUUAACA — within error, 0.148 ± 0.015
- UACACUGUCACCUUCUGUGAGAGAUAUUGA — lower, 0.0175 ± 0.0098
- UACACUGUCACCUUCUCUGACAGAAUAACA — lower, 0.0237 ± 0.0069
- UACACUGUCACCUUCUCAGAGAGAUUAACA — higher, 0.312 ± 0.03
- UAGUGUGUCUCCUUCUGUGAGAGAUUAACA — higher, 0.345 ± 0.022
- UACACUGUCACGUUCUCUGAGUGAUUAACA — lower, 0.0124 ± 0.0029
- UAGUCUGUCACCAUCUCUGAGUGAUUAACA — lower, 0.0218 ± 0.0034
- UAGUCUGUCACCUUGUCAGAGAGAUUAACA — lower, 0.0834 ± 0.0086
- UAGUCUGUCACCUUCUCUGAGAGAUUAACG [g2:g26:cont:t1G] — higher, 0.414 ± 0.025
- UACACUGUCACCAUCUCUGAGAGAUUAACA — higher, 0.532 ± 0.044
- AUCACUGUCACCUUCUGUGAGAGAUUUACA — higher, 0.229 ± 0.028
- UAGUGACAGACCUUCUCUGAGAAAUUAACA — lower, 0.0268 ± 0.0065
- UAGUGACAGUGCUUCACUGAGAGAUUAACA — lower, 0.00805 ± 0.0033
- UUCACUGUCACCUUCUCUGUCAGAUUUUGA — lower, 0.0217 ± 0.0082
- UAGUGUGUCAGCUUCUCUGAGAGAUUAUGA — lower, 0.0265 ± 0.0077
- UAGAGACUCACCUUCUCUGAGAGAUUAUGA — lower, 0.0764 ± 0.014
- AUCACUGACACCUUCUCUGAGAGAUUAUCA — higher, 0.3 ± 0.048
- UAGUGACAGUGGAUCUCUGAAGAUUAACA — lower, < 0.0001
- UAGUGACACACCUUCUCUGAGAGAUUACCA — within error, 0.123 ± 0.021
- UAGUCUGUCACCUUGUCUGAGUGAUUAACA — lower, 0.0328 ± 0.0032
- UAGUCUGUCACCUUCUCUGAGAGAUUAAACA — higher, 0.309 ± 0.027
- UAGACUGUCACCUUCUCUGAGAGAAUUACA — lower, 0.0428 ± 0.014
- UAGUGACAGACCUUCUCUGAGAGACUAACA — lower, 0.0225 ± 0.0061
- UUCACUGUCACCUUCUGUGAGAGAUUAUGA — lower, 0.0537 ± 0.02
- UAGUGUGUCAGCUUCUCUGAGAGAUUAAGA — lower, 0.0938 ± 0.015
- UAGUGACUCACCUUCUGUGAGAGAUUUUGA — lower, 0.00649 ± 0.0023
- UAGACUGUCACCUUCUCUGUGAGAAUAACA — lower, 0.0657 ± 0.0086
- UUCACUGUCACGUUCUCUGAGAGAUUUUGA — lower, 0.0121 ± 0.0042
- UAGACUGUCACCUACUCUGAGAGAUUAAGA — within error, 0.16 ± 0.026
- AUCACUGUCACCUUCUCUGUCAGAUUAACA — lower, 0.0129 ± 0.0034
- UAGUGUGUCACCUUCUGUGAGAGAUUAAGA — lower, 0.0234 ± 0.0064
- UACACUGUCACGUUCUCUGAGAGAUAAACA — higher, 0.253 ± 0.027
- UAGUGACAGUCCUUCACUGAGAGAUUAACA — lower, 0.0312 ± 0.0065
- AACACUGUCACGUUCUCUGAGAGAUUAACA — higher, 0.71 ± 0.035
- UAGUCUGUCACCUUCACUGAGAGAUUAUCA — within error, 0.117 ± 0.02
- UUCACUGUCACCUUCUAUGAGAGAUUAACA — higher, 0.224 ± 0.018
- UAGUGUGAUCACCUUCUCUGAGAGAUUAACA — higher, 0.594 ± 0.046
- UACACUGUCACCUUCUCUCAGAGAUUAAGA — lower, 0.0398 ± 0.012
- UAGUGAGUCUACCUUCUCUGAGAGAUUAACA — lower, 0.0864 ± 0.012
- UAGUGACAGUGCAAGUCUGAGAGAUUAACA — lower, < 0.0001
- UAGUCUGUCACCUUCUCUGAGACGAUUAACA — lower, 0.0222 ± 0.0059
- UAGUGUGUCACCUUCACUGAGAGAUUAACA — higher, 0.406 ± 0.02
- AUCACUGUGUCCUUCUCUGAGAGAUUAACA — higher, 0.577 ± 0.036
- UAGUGAGUCACCUUCUCUGAGAGUAAAACA — higher, 0.213 ± 0.044
- AUCAGUGUCACCUUCUCUGUGAGAUUAACA — higher, 0.274 ± 0.013
- UAGUCUGUCACGUUCUCUGAGAGAUUAAGA — lower, 0.102 ± 0.015
- UACUCUGUCACCUUCUCUCAGAGAUUAACA — within error, 0.114 ± 0.0091
- UACACUGUCACCUUCUCUGAGAGAUUGACA — higher, 0.317 ± 0.058
- UAGUGUGUCACCUUCUCUAGAGAUUAACA — within error, 0.128 ± 0.0096
- UAGUGACACACCUACUCUGAGUGAUUAACA — lower, 0.00841 ± 0.0023
- UAGUGACAGUGGAAGAGAGAUAGAUUAACA — lower, < 0.0001
- UACACUUUCACCUUCUCUGAGAGAUUAACA — higher, 0.54 ± 0.035
- UACACUCUCAGCUUCUCUGAGAGAUUAACA — within error, 0.137 ± 0.015

Source: the supplement of paper PMC10338343
